# The list shows a part of the results. The full chains were built here from the parent and the listed change. Inactive controls read about 0.05.
# B1: TEV protease; numbered along this chain (parent)
# chain: MGESLFKGPRDYNPISSSICHLTNESDGHTTSLYGIGFGPFIITNKHLFRRNNGTLVVQSLHGVFKVKDTTTLQQHLVDGRDMIIIRMPKDFPPFPQKLKFREPQREERICLVTTNFQTKSMSSMVSDTSCTFPSGDGIFWKHWIQTKDGQCGSPLVSTRDGFIVGIHSASNFTNTNNYFTSVPKNFMELLTNQEAQQWVSGWRLNADSVLWGGHKVFMVKPEEPFQPVKEATQL
# Variants of: B1
# Test: raw area under fraction-flipped curve 0-4 h after induction (AUC4h, not background-subtracted), DNA-recorder readout of cleavage of the substrate (dimensionless); higher = more cleavage of the substrate by the protease variant
# Settings: temperature: 34 °C; time window: 0-4 h after rhamnose induction
# 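Further: Bxb1 expression induced with 0.2% (w/v) L-rhamnose at OD600 near 0.5, cultures sampled hourly, flipped fraction per protease–substrate barcode pair counted by paired-end Illumina sequencing.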
Variant,area with substrate ENLYFCS,area with substrate ENLYFES,area with substrate ENLYFFS,area with substrate ENLYFHS,area with substrate ENLYFIS,area with substrate ENLYFKS,area with substrate ENLYFMS,area with substrate ENLYFNS,area with substrate ENLYFPS,area with substrate ENLYFTS,area with substrate ENLYFVS,area with substrate ENLYFWS,area with substrate ENLYFYS,area with substrate ENLYFGS,area with substrate ENLYFLS,area with substrate ENLYFSS,area with substrate ENLYFRS,area with substrate ENLYFDS
MGESLFKGPRDYNPISSSICHLTNESDGHTTSLYGIGFGPFIITNKHLFRRNNGTLVVQSLHGVFKVKDTTTLQQHLVDGRDMIIIRMPKDFPPHPQKLKFREPQREERICLVTTNFQTKSMSSMVSDTSCTFPSGDGIFWKHWIQTKDGQCGSPLVSTRDGFIVGIHSASNFTNTNNYFTSVPKNFMELLTNQEAQQWVSGWRLNADSVLWGGHKVFMVKPEEPFQPVKEATQL [F95H],0.0505,0.0575,0.0661,0.0508,0.0489,0.0507,0.0541,0.0599,0.0566,0.0601,0.0072,0.057,0.0521,,,,,
MGESLFKGPRDYNPISSSICHLTNESDGHTTSLYGIGFGPFIITNKHLFRRNNGTLSVQSLHGVFKVKDTTTLQQHLVDGRDMIIIRMPKDFPPFPQKLKFREPQREERICLVTTNFQTKSMSSMVSDTSCTFPSGDGIFWKHWIQTKDGQCGSPLVSTRDGFIVGIHSASNFTNTNNYFTSVPKNFMELLTNQEAQQWVSGWRLNADSVLWGGHKVFMVKPEEPFQPVKEATQL [V57S],0.055,0.0814,0.0649,0.0544,0.0608,0.0496,0.0777,0.0608,0.0573,,,0.0637,0.0717,0.0596,0.047,0.0752,,
MGESLFKGPRDYNPISSSICHLTNESDGHTTSLYGIGFGPFIITNKHLFRRNNGTLVVQSLHGVFKVKDTTTLQQHLVDGRDMIIIRMPHDFPPFPQKLKFREPQREERICLVTTNFQTKSMSSMVSDTSCTFPSGDGIFWKHWIQTKDGQCGSPLVSTRDGFIVGIHSASNFTNTNNYFTSVPKNFMELLTNQEAQQWVSGWRLNADSVLWGGHKVFMVKPEEPFQPVKEATQL [K90H],0.0645,,0.0658,0.0578,0.0468,0.0583,0.0658,0.0838,0.051,0.0562,,0.0648,,,0.0477,,0.0637,
MGESLFKGPRDYNPISSSICHLTNESDGHTTSLYGIGFGPFIITNKHLFRRNNGTLVVQSLHGVFKVKDTTTRQQHLVDGRDMIIIRMPKDFPPFPQKLKFREPQREERICLVTTNFQTKSMSSMVSDTSCTFPSGDGIFWKHWIQTKDGQCGSPLVSTRDGFIVGIHSASNFTNTNNYFTSVPKNFMELLTNQEAQQWVSGWRLNADSVLWGGHKVFMVKPEEPFQPVKEATQL [L73R],0.0631,0.0785,0.0566,0.0511,0.0603,0.0377,,0.0454,0.0597,0.0543,0.0643,,0.0524,,0.0605,0.0501,,0.0471
MGESLFKGPRDYNPISSSICHLTNESDGHTTSLYGIGFGPFIITNKHLFRRNNGTLVVQSLHGVFKVKDTTTEQQHLVDGRDMIIIRMPKDFPPFPQKLKFREPQREERICLVTTNFQTKSMSSMVSDTSCTFPSGDGIFWKHWIQTKDGQCGSPLVSTRDGFIVGIHSASNFTNTNNYFTSVPKNFMELLTNQEAQQWVSGWRLNADSVLWGGHKVFMVKPEEPFQPVKEATQL [L73E],0.0654,0.0539,0.072,,0.0513,0.0556,0.0489,,0.0585,0.0446,,0.0521,0.051,0.0428,,0.0507,0.0637,0.06
MGESLFKGPRDYNPISSSICHLTNESDGHTTSLYGIGFGPFIITNKHLFRRNNGTLVVQSLHGVFKVKDTTTQQQHLVDGRDMIIIRMPKDFPPFPQKLKFREPQREERICLVTTNFQTKSMSSMVSDTSCTFPSGDGIFWKHWIQTKDGQCGSPLVSTRDGFIVGIHSASNFTNTNNYFTSVPKNFMELLTNQEAQQWVSGWRLNADSVLWGGHKVFMVKPEEPFQPVKEATQL [L73Q],0.0498,0.0563,0.0587,0.0418,0.0502,0.0467,0.0554,0.0596,0.0498,0.0604,,0.0505,0.0511,0.0553,0.0318,0.0599,0.0394,
MGESLFKGPRDYNPISSSICHLTNESDGHTTSLYGIGFGPFIITNKHLFRRNNGTLVVQSLHGVFKVKDTTTLQQHLVDGRDMIIIRMPKDFPPFPHKLKFREPQREERICLVTTNFQTKSMSSMVSDTSCTFPSGDGIFWKHWIQTKDGQCGSPLVSTRDGFIVGIHSASNFTNTNNYFTSVPKNFMELLTNQEAQQWVSGWRLNADSVLWGGHKVFMVKPEEPFQPVKEATQL [Q97H],0.0583,,0.065,0.058,0.0496,,,0.0537,0.0626,,0.0237,0.0615,,,0.0523,,0.0599,0.0697
MGESLFKGPRDYNPISSSICHLTNESDGHTTSLYGIGFGPFIITNKHLDRRNNGTLVVQSLHGVFKVKDTTTLQQHLVDGRDMIIIRMPKDFPPFPQKLKFREPQREERICLVTTNFQTKSMSSMVSDTSCTFPSGDGIFWKHWIQTKDGQCGSPLVSTRDGFIVGIHSASNFTNTNNYFTSVPKNFMELLTNQEAQQWVSGWRLNADSVLWGGHKVFMVKPEEPFQPVKEATQL [F49D],0.0339,0.0636,0.0648,0.0714,0.0658,0.0587,0.0539,0.0538,,0.0414,0.0564,0.057,,,,0.0388,0.0731,
MGESLFKGPRDYNPISSSICHLTNESDGHTTSLYGIGFGPFIITNKHLFRRNNGTLVVQSLHGVFKVKDTTTLQQHLVKGRDMIIIRMPKDFPPFPQKLKFREPQREERICLVTTNFQTKSMSSMVSDTSCTFPSGDGIFWKHWIQTKDGQCGSPLVSTRDGFIVGIHSASNFTNTNNYFTSVPKNFMELLTNQEAQQWVSGWRLNADSVLWGGHKVFMVKPEEPFQPVKEATQL [D79K],0.0593,0.066,0.0623,0.0582,0.0545,0.0408,0.061,,0.0657,0.0587,,0.0446,0.0585,0.0556,,0.061,0.0671,

# Reference: the supplement of paper PMC12217912
